The list shows a part of the results.
Tested on: S. aureus RN4220
Assay: growth inhibition call (relative growth <= 0.2)
Details: 50 µM

SMILES | growth inhibition call
COc1ccc2c(c1)n(CCN)c(=O)n2C(=O)[C@@H]1C[C@H](C)CC[C@H]1C(C)C | active
COc1cccc(S(=O)(=O)N2C[C@@H](O)COC[C@H]3O[C@@H](CC(=O)N4CCOCC4)CC[C@@H]32)c1 | inactive
C[C@H](CO)N1C[C@H](C)[C@H](CN(C)S(C)(=O)=O)Oc2cc(C#Cc3ccc(F)cc3)ccc2S1(=O)=O | inactive
COc1ccc(S(=O)(=O)N(C)C[C@H]2OCCCC[C@@H](C)Oc3ccc(NS(=O)(=O)c4cn(C)cn4)cc3C(=O)N([C@@H](C)CO)C[C@H]2C)cc1 | inactive
C[C@H]1CN([C@@H](C)CO)C(=O)c2cc(NC(=O)C3CC3)ccc2O[C@H]1CN(C)S(=O)(=O)c1ccccc1 | inactive
C[C@@H]1CCCCO[C@H](CN(C)Cc2ccc(C(=O)Nc3ccccc3N)cc2)[C@@H](C)CN([C@H](C)CO)C(=O)c2cc(NS(=O)(=O)c3cccs3)ccc2O1 | inactive
Cc1ccc(S(=O)(=O)Nc2ccc3c(c2)CC(=O)N([C@@H](C)CO)C[C@H](C)[C@@H](CN(C)C(=O)NC(C)C)O3)cc1 | inactive
C[C@H]1CN([C@@H](C)CO)C(=O)Cc2cc(NC(=O)CCN3CCOCC3)ccc2O[C@H]1CN(C)S(=O)(=O)c1cccs1 | inactive
COc1ccc(CN(C)C[C@@H]2OCCCC[C@@H](C)Oc3ccc(NC(=O)Nc4ccc(OC)cc4)cc3C(=O)N([C@H](C)CO)C[C@H]2C)cc1 | inactive
C[C@H]1CN([C@@H](C)CO)S(=O)(=O)c2ccc(Br)cc2O[C@H]1CN(C)CC1CCOCC1 | inactive
CO[C@@H]1CN(C)C(=O)c2cc(NS(=O)(=O)c3cn(C)cn3)ccc2OC[C@H](C)N(CC2CC2)C[C@H]1C | inactive
CN1CCC(=C2c3ccccc3Sc3ccccc32)CC1.O=C(O)C=CC(=O)O | inactive
C[C@H]1CCCCO[C@@H](CN(C)CC2CCCCC2)[C@@H](C)CN([C@@H](C)CO)C(=O)c2cc(NC(=O)c3ccccc3)ccc2O1 | inactive
C[C@@H]1CN([C@@H](C)CO)C(=O)c2cc(Br)cnc2O[C@@H]1CN(C)S(=O)(=O)c1ccccc1 | inactive
CCOC(=O)c1ccc(NC(=S)N[C@@H](NC(=O)c2ccc(Br)cc2)C(Cl)(Cl)Cl)cc1 | inactive
C[C@@H]1CCCCO[C@H](CN(C)Cc2ccc(Cl)c(Cl)c2)[C@@H](C)CN([C@@H](C)CO)C(=O)c2cc(NC(=O)Nc3ccc(C(F)(F)F)cc3)ccc2O1 | inactive

SMILES | growth inhibition call
COc1ccc(CN(C)C[C@@H]2Oc3c(NC(=O)c4cc(C)nn4C)cccc3C(=O)N([C@H](C)CO)C[C@@H]2C)cc1 | inactive
COc1ccccc1C#Cc1ccc2c(c1)O[C@H](CN(C)Cc1cccnc1)[C@@H](C)CN([C@@H](C)CO)S2(=O)=O | inactive
N#C[C@H]1N[C@@H](CO)[C@H]1c1ccccc1 | inactive
COc1ccc(NC(=O)N(C)C[C@H]2Oc3c(NC(=O)c4ccc(-c5nccs5)cc4)cccc3C(=O)N([C@@H](C)CO)C[C@H]2C)cc1 | inactive
COc1ccc(NC(=O)Nc2ccc3c(c2)C(=O)N([C@@H](C)CO)C[C@H](C)[C@@H](CN(C)Cc2ccc(C(=O)O)cc2)OCCCC[C@@H](C)O3)cc1 | inactive
C[C@H]1CN([C@@H](C)CO)C(=O)c2cccc(NS(=O)(=O)c3cccs3)c2O[C@H]1CN(C)Cc1ccncc1 | inactive
CCOC(=O)N1CCC(O)CC1 | inactive
CCS(=O)(=O)N1CC[C@]2(CC1)CN(Cc1ccc(cc1)OC)[C@H](CO)c1c2c2ccc(cc2n1C)OC | inactive
CO[C@@H](CN(C)S(=O)(=O)c1cccc(Cl)c1)[C@@H](C)CN([C@@H](C)CO)S(=O)(=O)c1ccc(Cl)cc1 | inactive
Cc1cc(C)c(C(=O)O)c(=O)[nH]1 | inactive
CNC[C@@H]1Oc2ccc(NC(=O)Cn3cnnn3)cc2C(=O)N([C@H](C)CO)C[C@H]1C | inactive
COc1ccc(NC(=O)Nc2cccc3c2O[C@H](CN(C)CC2CCCCC2)[C@@H](C)CN([C@@H](C)CO)C3=O)cc1 | inactive
COc1ccccc1CN1C(=O)c2ccccc2[C@@]2(Cc3ccccc3N(CCCN(C)C)C2=O)[C@@H]1c1ccc(CO)cc1 | inactive
C[C@H]1CN([C@@H](C)CO)C(=O)Cc2cc(NC(=O)Nc3cccc4ccccc34)ccc2O[C@@H]1CN(C)C(=O)Nc1ccc(F)cc1 | inactive
C[C@H]1CN([C@@H](C)CO)C(=O)Cc2cc(NC(=O)Nc3ccc(C(F)(F)F)cc3)ccc2O[C@H]1CN(C)C(=O)Nc1cccc2ccccc12 | inactive

— the antibiotic and cytotoxicity screens of Wong et al. (2023)
